# Reference: the supplement of paper PMC8728848
# Some of the results follow.
# How the values were obtained:
# Test in all cases: glycan array binding signal (z-score within array); higher = stronger binding
# Details in all cases: glycan notation: IUPAC condensed, linker removed
# [1] = biological target: GlcNAc(b1-3)Gal(b1-4)GlcNAc(b1-3)Gal(b1-4)GlcNAc(b1-3)GalNAc
# Outline: (§1)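 The binding signal is a Z-score computed within each array. Data were drawn from 3228 arrays in the Consortium for Functional Glycomics database, restricted to those with a known protein sequence. Scores were averaged over arrays of the same protein sequence at different concentrations or buffers, and over linkers, and negative values can be taken as non-binding.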
# [2] = biological target: GlcNAc(b1-3)Gal(b1-4)GlcNAc(b1-3)GalNAc
# Outline: as §1
# [3] = biological target: GlcNAc(b1-3)Gal(b1-4)GlcNAc(b1-3)[GlcNAc(b1-3)Gal(b1-4)GlcNAc(b1-3)]GalNAc
# Outline: as §1
# [4] = biological target: GlcNAc(b1-3)Gal(b1-4)GlcNAc(b1-6)[Gal(b1-3)]GalNAc
# Outline: as §1
# [5] = biological target: GlcNAc(b1-3)Gal(b1-4)GlcNAc(b1-6)[GlcNAc(b1-3)Gal(b1-3)]GalNAc
# Outline: as §1
# [6] = biological target: GlcNAc(b1-3)Gal(b1-4)GlcNAc(b1-6)[GlcNAc(b1-3)]Gal(b1-4)GlcNAc
# Outline: as §1
# GlcNAc(b1-3)GalNAc = biological target: GlcNAc(b1-3)GalNAc
# Outline: as §1
# GlcNAc(b1-3)Man = biological target: GlcNAc(b1-3)Man
# Outline: as §1
# [7] = biological target: GlcNAc(b1-3)[GlcNAc(b1-4)][GlcNAc(b1-6)]GlcNAc
# Outline: as §1
# [8] = biological target: GlcNAc(b1-3)[GlcNAc(b1-6)]Gal(b1-4)GlcNAc
# Outline: as §1
# [9] = biological target: GlcNAc(b1-3)[GlcNAc(b1-6)]GalNAc
# Outline: as §1
# [10] = biological target: GlcNAc(b1-4)Gal(b1-4)GlcNAc
# Outline: as §1
# GlcNAc(b1-4)GlcNAc = biological target: GlcNAc(b1-4)GlcNAc
# Outline: as §1
# [11] = biological target: GlcNAc(b1-4)GlcNAc(b1-4)GlcNAc
# Outline: as §1
# [12] = biological target: GlcNAc(b1-4)GlcNAc(b1-4)GlcNAc(b1-4)GlcNAc(b1-4)GlcNAc
# Outline: as §1
# [13] = biological target: GlcNAc(b1-4)GlcNAc(b1-4)GlcNAc(b1-4)GlcNAc(b1-4)GlcNAc(b1-4)GlcNAc
# Outline: as §1
# [14] = biological target: GlcNAc(b1-4)[GlcNAc(b1-6)]GalNAc
# Outline: as §1
# [15] = biological target: GlcNAc(b1-6)Gal(b1-4)GlcNAc
# Outline: as §1
# GlcNAc(b1-6)GalNAc = biological target: GlcNAc(b1-6)GalNAc
# Outline: as §1
# [16] = biological target: GlcNAc6S(b1-3)Gal(b1-4)GlcNAc
# Outline: as §1
# Kdn(a2-3)Gal(b1-3)GalNAc = biological target: Kdn(a2-3)Gal(b1-3)GalNAc
# Outline: as §1
# Kdn(a2-3)Gal(b1-3)GlcNAc = biological target: Kdn(a2-3)Gal(b1-3)GlcNAc
# Outline: as §1
# Kdn(a2-3)Gal(b1-4)Glc = biological target: Kdn(a2-3)Gal(b1-4)Glc
# Outline: as §1
# Kdn(a2-3)Gal(b1-4)GlcNAc = biological target: Kdn(a2-3)Gal(b1-4)GlcNAc
# Outline: as §1
# [17] = biological target: Kdn(a2-3)Gal(b1-4)[Fuc(a1-3)]GlcNAc
# Outline: as §1
# Kdn(a2-6)Gal(b1-4)GlcNAc = biological target: Kdn(a2-6)Gal(b1-4)GlcNAc
# Outline: as §1
# [18] = biological target: Man(a1-2)Man(a1-2)Man(a1-3)Man
# Outline: as §1
# [19] = biological target: Man(a1-2)Man(a1-2)Man(a1-6)[Man(a1-3)]Man
# Outline: as §1
# Man(a1-2)Man(a1-3)Man = biological target: Man(a1-2)Man(a1-3)Man
# Outline: as §1
# [20] = biological target: Man(a1-2)Man(a1-3)[Man(a1-2)Man(a1-6)]Man
# Outline: as §1
# [21] = biological target: Man(a1-2)Man(a1-3)[Man(a1-2)Man(a1-6)]Man(a1-6)[Man(a1-2)Man(a1-2)Man(a1-3)]Man
# Outline: as §1
# [22] = biological target: Man(a1-2)Man(a1-3)[Man(a1-2)Man(a1-6)]Man(a1-6)[Man(a1-2)Man(a1-2)Man(a1-3)]Man(b1-4)GlcNAc(b1-4)GlcNAc
# Outline: as §1
# [23] = biological target: Man(a1-2)Man(a1-3)[Man(a1-6)]Man(a1-6)[Man(a1-2)Man(a1-3)]Man(b1-4)GlcNAc(b1-4)GlcNAc
# Outline: as §1
# [24] = biological target: Man(a1-2)Man(a1-6)[Man(a1-3)]Man(a1-6)[Man(a1-2)Man(a1-2)Man(a1-3)]Man
# Outline: as §1
# [25] = biological target: Man(a1-2)Man(a1-6)[Man(a1-3)]Man(a1-6)[Man(a1-2)Man(a1-2)Man(a1-3)]Man(b1-4)GlcNAc(b1-4)GlcNAc
# Outline: as §1
# Man(a1-3)[Man(a1-6)]Man = biological target: Man(a1-3)[Man(a1-6)]Man
# Outline: as §1
# [26] = biological target: Man(a1-3)[Man(a1-6)]Man(a1-6)[Man(a1-2)Man(a1-3)]Man(b1-4)GlcNAc(b1-4)GlcNAc
# Outline: as §1
binder,measurement,setting,value
PX9937D-bvu-500-26-500 (Bacteroides vulgatus) (protein) DPVSDITDLNYWKTPEQFDSFVFGLHSRFRSHSWNMFLLGEARSDVFGGIPFGGEATQGMERFPYNTLNAENPGISGFGDLYQNINQMNLFISRTLHTDVLTESARNYYLGQVYGLRAYYMYQLYRSWGDVVFTEEPSLGFEVGKLAKAATPAAEIFEQVKKDIESSLSYFGSDYTIKEKKSLWSKAATLMLKADVYLWSAHRDGGEGDARTAKNALVDIQNNISRSNLDLMDTYQGVFAYDNKGNKEIIFTIHNELFEYNLWNGNNDLFPQADYLGKFYNADGTLINTSVENNFGIMRLMVKLENFKKFLPGDTRRDVTLKDVYNKVENGKLELVGVYPHKYWGVMNGSTRVRCDDYPIYRYSDLLLMLAEAKVLLGEDPATEINRVRRRAFGDAYDASTVGFPNQEVDKRPADAVLQERLFEFMLEGKRWYDLRRFGDSYVLDYTPAEPARLLWPINQGALTNNPLLKQTVGY,glycan array binding signal (z-score),[1],-0.353
same,glycan array binding signal (z-score),[2],-0.366
same,glycan array binding signal (z-score),[3],-0.076
same,glycan array binding signal (z-score),[4],-0.099
same,glycan array binding signal (z-score),[5],0.114
same,glycan array binding signal (z-score),[6],-0.546
same,glycan array binding signal (z-score),GlcNAc(b1-3)GalNAc,-0.619
same,glycan array binding signal (z-score),GlcNAc(b1-3)Man,-0.094
same,glycan array binding signal (z-score),[7],-0.479
same,glycan array binding signal (z-score),[8],0.311
same,glycan array binding signal (z-score),[9],-0.506
same,glycan array binding signal (z-score),[10],-0.229
same,glycan array binding signal (z-score),GlcNAc(b1-4)GlcNAc,0.201
same,glycan array binding signal (z-score),[11],-0.41
same,glycan array binding signal (z-score),[12],-0.558
same,glycan array binding signal (z-score),[13],-0.379
same,glycan array binding signal (z-score),[14],-0.387
same,glycan array binding signal (z-score),[15],0.08
same,glycan array binding signal (z-score),GlcNAc(b1-6)GalNAc,0.455
same,glycan array binding signal (z-score),[16],-0.75
same,glycan array binding signal (z-score),Kdn(a2-3)Gal(b1-3)GalNAc,-0.333
same,glycan array binding signal (z-score),Kdn(a2-3)Gal(b1-3)GlcNAc,-0.12
same,glycan array binding signal (z-score),Kdn(a2-3)Gal(b1-4)Glc,-0.224
same,glycan array binding signal (z-score),Kdn(a2-3)Gal(b1-4)GlcNAc,-0.408
same,glycan array binding signal (z-score),[17],-0.237
same,glycan array binding signal (z-score),Kdn(a2-6)Gal(b1-4)GlcNAc,-0.492
same,glycan array binding signal (z-score),[18],-0.497
same,glycan array binding signal (z-score),[19],-0.576
same,glycan array binding signal (z-score),Man(a1-2)Man(a1-3)Man,-0.696
same,glycan array binding signal (z-score),[20],-0.532
same,glycan array binding signal (z-score),[21],-0.398
same,glycan array binding signal (z-score),[22],-0.504
same,glycan array binding signal (z-score),[23],-0.359
same,glycan array binding signal (z-score),[24],-0.503
same,glycan array binding signal (z-score),[25],-0.167
same,glycan array binding signal (z-score),Man(a1-3)[Man(a1-6)]Man,-0.391
same,glycan array binding signal (z-score),[26],0.269
